From paper PMC4336329 (PLoS ONE, 2015)
The campaign covered roughly 310,000 compounds. About 14,000 (4.5%) showed an effect of 50% or more. Effects have a minus sign here. The list shows a part of the results.

biological target: human ether-à-go-go-related gene (hERG) potassium channel (human, UniProt Q12809); test: primary screen, population patch clamp on CHO cells stably expressing hERG
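Also: peak tail current of the secondary pulse compared with the same well before compound.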

Chain of human ether-à-go-go-related gene (hERG) potassium channel (Q12809 whole entry, looked up): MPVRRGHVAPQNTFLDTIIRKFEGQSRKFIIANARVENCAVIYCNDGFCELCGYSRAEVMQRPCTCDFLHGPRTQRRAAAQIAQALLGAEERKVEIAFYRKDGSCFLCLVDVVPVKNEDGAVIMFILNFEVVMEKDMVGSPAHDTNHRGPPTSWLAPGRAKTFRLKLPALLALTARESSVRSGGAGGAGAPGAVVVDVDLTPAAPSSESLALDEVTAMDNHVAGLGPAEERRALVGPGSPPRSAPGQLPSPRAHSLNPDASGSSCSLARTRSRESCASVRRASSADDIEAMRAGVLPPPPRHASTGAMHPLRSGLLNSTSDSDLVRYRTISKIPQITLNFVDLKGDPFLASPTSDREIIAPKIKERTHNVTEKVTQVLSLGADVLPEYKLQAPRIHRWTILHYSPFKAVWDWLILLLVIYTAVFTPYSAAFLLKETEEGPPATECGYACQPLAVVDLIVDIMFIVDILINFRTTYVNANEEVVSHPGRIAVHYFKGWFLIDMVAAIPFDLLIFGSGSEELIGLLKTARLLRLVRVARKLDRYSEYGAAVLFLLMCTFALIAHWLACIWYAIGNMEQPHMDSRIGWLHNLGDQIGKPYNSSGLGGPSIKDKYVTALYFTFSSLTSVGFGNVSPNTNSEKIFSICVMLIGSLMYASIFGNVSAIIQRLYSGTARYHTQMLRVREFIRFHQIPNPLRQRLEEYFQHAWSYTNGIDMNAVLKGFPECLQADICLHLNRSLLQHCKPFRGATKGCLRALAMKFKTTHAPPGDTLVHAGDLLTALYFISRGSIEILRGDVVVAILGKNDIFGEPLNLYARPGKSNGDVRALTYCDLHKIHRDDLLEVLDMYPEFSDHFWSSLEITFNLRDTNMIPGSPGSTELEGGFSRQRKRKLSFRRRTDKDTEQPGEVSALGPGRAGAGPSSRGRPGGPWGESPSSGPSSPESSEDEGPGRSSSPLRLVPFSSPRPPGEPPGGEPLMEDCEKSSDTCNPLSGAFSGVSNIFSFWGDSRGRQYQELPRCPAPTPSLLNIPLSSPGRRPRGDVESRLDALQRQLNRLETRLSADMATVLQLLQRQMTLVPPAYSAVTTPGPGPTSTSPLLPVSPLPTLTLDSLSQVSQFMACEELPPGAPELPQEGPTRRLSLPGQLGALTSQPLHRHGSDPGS

| SMILES | hERG current change (%, negative = inhibition) at 10uM [%] |
| --- | --- |
| CN(CC(=O)NCCCN1CCOCC1)S(=O)(=O)c1ccc(Br)cc1 | -18.9 |
| Oc1[nH]c2ccccc2c1N=Nc1cccc(Cl)c1 | 16.5 |
| CC1(C)C(=O)N(c2ccccc2)C(=O)c2ccccc21 | 9.68 |
| O=C(CSc1ccc(-c2ccco2)nn1)Nc1ccccc1 | -47.6 |
| Cc1cccc(NC(=O)Nc2cc(C)cc(C)n2)c1 | 11.7 |
| Cc1cc(C(=O)COc2ccc(Br)cc2F)c(C)n1C1CC1 | -9.63 |
| COc1cc(NC(=O)Nc2cccc3cccnc23)cc(OC)c1OC | -1.6 |
| CCOC(=O)N1CCN(C(=O)Cn2ccc3ccccc3c2=O)CC1 | -2.48 |
| O=c1cc(NS(=O)(=O)c2ccccc2)nc(SCc2ccc(Cl)cc2)[nH]1 | 1.17 |
| CCC(c1nnnn1CCc1ccccc1)N(Cc1ccco1)Cc1cc2cc(C)cc(C)c2[nH]c1=O (stereo not shown) | 2.79 |
| CCOc1ccc(NC(=S)N(CCc2c(C)[nH]c3ccccc23)Cc2ccco2)cc1 | 2.6 |
| Clc1ccc(-c2nnc3sc(Cc4cccs4)nn23)c(Cl)c1 | -55.7 |
| COc1ccc(C(=O)CCC(=O)O)c(C)c1 | 6.08 |
| O=C(CCCN1C(=O)c2ccccc2C1=O)NCCCn1ccnc1 | 13.4 |
| Cc1ccccc1NC(=O)CSc1nnc(Cc2ccccc2)o1 | -12.6 |
| O=C(NCc1cccnc1)C(=O)NCC1OCCN1S(=O)(=O)c1ccc(F)cc1 (stereo not shown) | 6.16 |
| O=C(CS(=O)(=O)c1cn(Cc2ccc(F)cc2)c2ccccc12)N1CCCCC1 | -0.405 |
| Cc1cc(C(=O)NNC(=S)NC(C)c2ccccc2)c2ccccc2n1 (stereo not shown) | 14.6 |
| CSc1nnc2c(n1)OC=Nc1ccc(Br)cc1-2 | -11.7 |
| CNCc1ccccc1Sc1ccc(OC)cc1.Cl | -30.4 |
| CCN(CC)CCOC(=O)c1ccc(NC(=O)CCCN2C(=O)S/C(=C/c3ccc(OC)cc3)C2=S)cc1 | 29.5 |
| O=S(=O)(c1cccc2nsnc12)N1CCN(c2ccccc2F)CC1 | 13.5 |

| SMILES | hERG current change (%, negative = inhibition) at 10uM [%] |
| --- | --- |
| O=C(Nc1ccc(OC(F)F)c(Cl)c1)C(c1ccccc1)c1ccccc1 | 14.9 |
| O=C(Nc1ccc(S(=O)(=O)N2CCCCC2c2cccnc2)cc1)c1ccccc1F (stereo not shown) | 0.959 |
| CC(OC(=O)C1CCCCC1)C(=O)Nc1cccc(Cl)c1 (stereo not shown) | -14.7 |
| COc1ccccc1-n1nnnc1SCC(=O)Nc1ccccn1 | -4.3 |
| Cc1ccc(C)c(OCCC(=O)OCC(=O)N(C)c2c(N)n(Cc3ccccc3)c(=O)[nH]c2=O)c1 | -10.2 |
| COc1ccc(CCNC(=O)COc2ccc(S(=O)(=O)NCC(C)C)cc2Cl)cc1OC | -8.83 |
| COc1ccc(NC(=O)Nc2c(C)n(-c3ccccc3)c(=O)n2C)cc1OC | 0.0287 |
| O=C(NCC1CC1)c1ccc(Oc2cc(Cl)cc(Cl)c2)o1 | -33.7 |
| CCOP(=O)(OCC)C(Nc1cccc([N+](=O)[O-])c1)c1ccc(N(C)C)cc1 (stereo not shown) | -7.39 |
| COc1ccc(CCNC(=O)Cn2c(=O)oc3ccccc32)cc1OC | -1.88 |
| Cc1c(C(=O)N2CCCC2)c(S(=O)(=O)NCC(C)c2ccccc2)c(C)n1C (stereo not shown) | 12.7 |
| Cc1nn(-c2ccccc2)c2[nH]c(=O)c(CNc3ccc4c(c3)OCCO4)cc12 | -3.56 |
| O=C(CN1C(=O)COc2ccccc21)N(Cc1cccnc1)Cc1ccccc1F | -26.6 |
| COc1ccc(/C(C)=N\Nc2nc(-c3ccccc3)cc(=O)[nH]2)cc1 | 12.7 |
| COC(=O)c1ccc(C)c(N(CCO)CCO)c1 | -9.7 |
| C=CCn1cnc2c(NCc3ccccc3)ncnc21 | 7.58 |
| CC(C)N1C(=O)C2C(C(=O)NCc3ccccc3)C3C=CC2(O3)C1C(=O)NC(C)(C)C (stereo not shown) | 12.3 |
| O=C1COc2cccnc2N1 | 5.96 |
| Cc1cc2c(cc1S(=O)(=O)NCc1ccc(Cl)cc1)OCC(=O)N2 | -57.9 |
| Cc1ccccc1OCCNC(=O)/C=C/c1ccccc1 | -8.42 |
| COc1ccc(C(=O)Cc2cc(OC)c(OC)cc2[N+](=O)[O-])c(OC)c1 | 11.1 |
| COc1ccc(C2c3[nH]c4ccccc4c3CCN2C(=O)c2ccccc2C(C)=O)c(F)c1 (stereo not shown) | 15.9 |

| SMILES | hERG current change (%, negative = inhibition) at 10uM [%] |
| --- | --- |
| Cc1ccc(NC(=O)C(C)N2CCc3ccccc3C2)cc1 (stereo not shown) | -16.4 |
| CC(C)(C)c1ccc(N2C(=N)SCC2=O)cc1 | -0.538 |
| Cc1nc2ccccc2c(=O)n1-c1ccc(Br)cc1[N+](=O)[O-] | 4.41 |
| COc1ccc(OC(=O)Nc2ccc([N+](=O)[O-])cc2OC)cc1 | 12.8 |
| O=c1c2ccccc2nc(-c2ccc(-c3ccccc3)cc2)n1-c1ccncc1 | -42.9 |
| CCN(CC)CCN1C(=O)C2C(C(=O)Nc3cccc(SC)c3)C3C=CC2(O3)C1C(=O)NC1CCCC(C)C1C (stereo not shown) | -49.7 |
| CC(=O)Nc1ccc(S(=O)(=O)N2c3ccc(F)cc3CCC2C)cc1 (stereo not shown) | -18.4 |
| O=C1CC2(CCCCCC2)Oc2ccccc21 | -6.74 |
| CCC(C)[C@H](NC(=O)[C@@H]1CSC2c3ccccc3C(=O)N21)C(=O)N1CCCCC1 (stereo partly shown) | 2.86 |
| O=C(O)CC12CC3CC(C1)CC(n1ncc(NCc4ccccc4)c(Cl)c1=O)(C3)C2 | 13.4 |
| Cn1c(SCC(=O)Nc2ccc(N3CCOCC3)c(Cl)c2)nnc1-c1ccccc1 | 2.49 |
| Cc1cc(Oc2ccc(=O)n(C)n2)nc(SCc2ccccc2)n1 | 25.7 |
| COc1ccc(CN2CCC(C(=O)Nc3ccc(Oc4ccccc4)nc3)CC2)cc1F | -71.6 |
| Cc1cnc(NC(=O)CCCc2nc3ccccc3s2)s1 | -6.98 |
| COc1ccc(CCN2CCCn3c2nc2c3c(=O)n(CC(N)=O)c(=O)n2C)cc1OC | 20.8 |
| COC(=O)c1ccc(Cl)cc1NC(=O)/C=C/c1ccc(C)o1 | 5.78 |
| COC(=O)c1[nH]c2ccc(C)cc2c1NC(=O)CN1CCN(C(=O)c2ccccc2)CC1.Cl | -52.1 |
| NS(=O)(=O)c1ccc(CCNC(=O)C(=O)Nc2cc3c4c(c2)CC(=O)N4CCC3)cc1 | -1.21 |
| COC(=O)c1ccc(C)c(NC(=O)Cn2cnc3ccccc3c2=O)c1 | -8.34 |
| Cn1c(SCC(=O)Nc2nccs2)nnc1-c1ccco1 | -5.22 |
| CCOC(=O)c1cc2sccc2n1CCCN1C(=O)c2ccccc2C1=O | 6.01 |
| COc1ccccc1Nc1nc(N2CCCC2)nc(N2CCOCC2)n1 | 20.5 |

| SMILES | hERG current change (%, negative = inhibition) at 10uM [%] |
| --- | --- |
| Cc1ccccc1NS(=O)(=O)c1ccc(C)c(C(=O)N2CCOCC2)c1 | 1.47 |
| COc1ccccc1CC(=O)Nc1ccc2nc(C)sc2c1 | -2.82 |
| CCN1CCN(c2cc(C)c3cc(NC(=O)Cc4ccc(OC)c(OC)c4)ccc3n2)CC1 | -10.5 |
| Cc1nn(C)c(Oc2ccccc2)c1CCNC(=O)CC(C)C | 13.6 |
| CC1CCN(c2ccc3nnc(CCC(=O)NC(C)C)n3n2)CC1 | 2.67 |
| O=C(CN(C(=O)c1csnn1)c1ccc(Br)cc1)NC1CCCCC1 | 9.11 |
| Nc1cccc(NC(=O)c2ccco2)c1 | 4.06 |
| Clc1ccc(OCc2nnc(SCc3nc4ccccc4[nH]3)n2Cc2ccco2)cc1 | -36 |
| CCOC(=O)c1c(NC(=O)CN(C)C)sc(C(=O)N(CC)CC)c1C.O=C(O)C(=O)O | -17.6 |
| O=S(=O)(c1cc(Cl)ccc1Cl)N1CCCC1 | 1.83 |
| O=C(/C=C/c1ccc(O)c(O)c1)O[C@@H]1C[C@](O)(C(=O)O)C[C@@H](O)[C@H]1O | 12 |
| O=C(NCc1ccccc1)C1CCC1 | 30.1 |
| CC(C)CN(C(=O)CC1CCCC1)c1c(N)n(Cc2ccccc2)c(=O)[nH]c1=O | 6.93 |
| COc1ccc(CN(C(=O)c2cc3ccccc3oc2=O)C2CCCC2)cc1 | -29.1 |
| Nc1nc(SCC(=O)NC2CCCCC2)[nH]c(=O)c1-c1ccccc1 | -11.7 |
| COC(=O)c1onc(-c2c(Cl)cccc2Cl)c1C(=O)OC | 11.5 |
| COCCCNC(=S)NNC(=O)c1ccccn1 | 61.7 |
| CCn1c(N)c(C(=O)NCc2ccco2)sc1=S | 4.04 |
| Cc1ccc(N(CCC#N)C(=O)COC(=O)C2CCN(c3ccc(C(F)(F)F)cn3)CC2)cc1 | -6.4 |
| Cl.O=[N+]([O-])c1cccc(/C=N\N2CCN(Cc3ccccc3Cl)CC2)c1 | -2.78 |
| COc1ccc(CNC(=O)C(=O)NCCC2CCCCN2S(=O)(=O)c2ccc(C)cc2)cc1 (stereo not shown) | -3.21 |
| CCC(CC)NC(=O)COC(=O)c1ccc(NS(=O)(=O)c2ccc3c(c2)OCCO3)cc1 | -12.3 |
